This is one part of the list.

In the assay the test system is HepG2. Put plainly: cytotoxicity call (relative viability < 0.9). Conditions: 10 µM.
Take `C[C@H](CO)N1C[C@H](C)[C@H](CN(C)C(=O)NC2CCCCC2)Oc2c(NC(=O)c3cnccn3)cccc2C1=O`: the cytotoxicity call was “inactive”.
As for `C[C@H]1CCCCO[C@H](CN(C)C(=O)Cc2ccccc2)[C@@H](C)CN([C@@H](C)CO)C(=O)c2cc(NC(=O)Cc3ccccc3)ccc2O1`, the cytotoxicity call was “inactive”.
In the case of `COc1ccc(NC(=O)Nc2ccc3c(c2)CC(=O)N([C@@H](C)CO)C[C@H](C)[C@@H](CN(C)Cc2ccc(Oc4ccccc4)cc2)O3)cc1` it was “inactive”.
In the case of `COc1ccc2c(O[C@H]3CCCC[C@@H]3OC)nccc2c1-n1ccnc1-c1c[nH]c2c(N)c(F)cc(C#N)c12` it was “active”.
In the case of `C[C@H]1CN([C@@H](C)CO)C(=O)c2cccc(NC(=O)C3CC3)c2O[C@H]1CN(C)S(=O)(=O)c1cn(C)cn1` it was “inactive”.
As for `Cc1ccc(N2NC(=O)/C(=N/O)C2=O)cc1C`, the cytotoxicity call is “inactive”.
In the case of `CCCNC(=O)N(C)C[C@H]1Oc2ncc(-c3ccc(C(=O)N(C)C)cc3)cc2C(=O)N([C@H](C)CO)C[C@@H]1C` it was “inactive”.
In the case of `CC(=O)OCC(=O)O[C@@H]1[C@H]2[C@@H](OC(=O)c3ccccc3)[C@@H](C)C[C@]2(O)[C@H](OC(C)=O)[C@@]2(C)[C@H](OC(C)=O)[C@]1(OC(C)=O)C[C@H]1C(=O)C(C)(C)C[C@@H]12` it was “inactive”; in that of `O=C(Nc1ccc(C(F)(F)F)cc1)Nc1ccc2c(c1)[C@H]1C[C@@H](CC(=O)N3CCc4ccccc4C3)O[C@H](CO)[C@H]1O2`, “active”; in that of `C[C@@H]1CN([C@@H](C)CO)C(=O)c2cc(Br)cnc2O[C@H]1CN(C)Cc1ccc2c(c1)OCO2`, “inactive”.
In the case of `CO[C@H]1/C=C\O[C@@]2(C)Oc3c(C)c(O)c4c(O)c(c(/C=N/N=C/N5CCCCC5)c(O)c4c3C2=O)NC(=O)/C(C)=C\C=C/[C@H](C)[C@H](O)[C@@H](C)[C@@H](O)[C@@H](C)[C@H](OC(C)=O)[C@@H]1C` it was “inactive”; in that of `O=C(NC[C@@H](O)CO)[C@]1(CCS(=O)(=O)c2ccccc2)N=C(c2ccc(OCCCO)cc2)O[C@@H]1c1ccccc1`, “inactive”; in that of `FC(F)(F)CN1CCNCC1`, “inactive”.
As to `CCc1c(O)cc(O)c(C(=O)c2ccc(OCCN3CCOCC3)c(OC)c2)c1CC(=O)N(CCOC)CCOC`, the cytotoxicity call is “active”.
For `COCC#Cc1ccc2c(c1)O[C@@H](CN(C)S(=O)(=O)c1cccc(F)c1)[C@H](C)CN([C@@H](C)CO)S2(=O)=O`, the cytotoxicity call was “inactive”.
Turning to `N[C@@H](C(=O)O)C1=CCC=CC1`, the cytotoxicity call is “inactive”.
The result for `C[C@@H]1CN([C@H](C)CO)C(=O)c2cc(NC(=O)NC3CCCCC3)ccc2O[C@@H]1CN(C)Cc1ccc(Oc2ccccc2)cc1` reads “active”.
For `CC(C)NC(=O)N(C)C[C@H]1Oc2ccc(NC(=O)C3CCCCC3)cc2C(=O)N([C@H](C)CO)C[C@H]1C`, the cytotoxicity call is “inactive”.
With `COc1cc2c(cc1-c1coc3c4c(c(OC)cc3c1=O)OC(C)(C)CC4)OCO2`, the cytotoxicity call is “inactive”.
The result for `O=C(C[C@@H]1C[C@@H]2c3cc(NC(=O)Nc4ccc(C(F)(F)F)cc4)ccc3O[C@@H]2[C@H](CO)O1)NCc1cc(F)ccc1F` reads “inactive”.
The result for `O=C(CCNNC(=O)c1ccncc1)NCc1ccccc1` reads “inactive”; that for `COc1ccc(NC(=O)N(C)C[C@H]2Oc3ncc(C#CC(C)C)cc3C(=O)N([C@@H](C)CO)C[C@@H]2C)cc1`, “inactive”.
In the case of `C[C@@H]1CN([C@@H](C)CO)C(=O)c2cc(NC(=O)C3CC3)ccc2O[C@H]1CN(C)S(=O)(=O)c1cccs1` it was “inactive”; in that of `O=C(C[C@@H]1CC[C@@H]2[C@H](COC[C@@H](O)CN2S(=O)(=O)c2ccc(Cl)cc2)O1)NCCN1CCCC1`, “inactive”; in that of `C[C@H](CO)N1C[C@H](C)[C@H](CN(C)Cc2ccc(C(F)(F)F)cc2)Oc2ccc(NC(=O)CCC(F)(F)F)cc2C1=O`, “inactive”.
As for `C[C@@H]1CN([C@@H](C)CO)C(=O)Cc2cc(NC(=O)Nc3cccc4ccccc34)ccc2O[C@H]1CN(C)C(=O)Nc1ccc2c(c1)OCO2`, the cytotoxicity call was “inactive”.
Consider `C[C@H]1CCCCO[C@H](CN(C)C(=O)Nc2cccc3ccccc23)[C@@H](C)CN([C@@H](C)CO)C(=O)c2cc(NS(=O)(=O)c3cccs3)ccc2O1`, for which the cytotoxicity call was “active”.
Turning to `COc1cc(O)cc(OC)c1OC`, the cytotoxicity call is “inactive”.
In the case of `O=C(O)c1cccc(-n2cnnn2)c1` it was “inactive”.
The result for `O=C(O[C@@H]1O[C@@H]2COC(=O)c3cc(O)c(O)c(O)c3-c3c(cc(O)c(O)c3O)C(=O)O[C@H]2[C@H](OC(=O)c2cc(O)c(O)c(O)c2)[C@H]1OC(=O)c1cc(O)c(O)c(O)c1)c1cc(O)c(O)c(O)c1` reads “active”; that for `C[C@@H]1CN([C@H](C)CO)C(=O)c2cc(NS(=O)(=O)c3cn(C)cn3)ccc2O[C@@H]1CN(C)Cc1ccc(C(=O)O)cc1`, “inactive”.
The result for `COc1ccc(S(=O)(=O)N(C)C[C@@H]2Oc3ccc(NC(=O)Cn4cnnn4)cc3CC(=O)N([C@H](C)CO)C[C@@H]2C)cc1` reads “inactive”; that for `CC1(C)SC2C(NC(=O)C(C(=O)[O-])c3ccccc3)C(=O)N2C1C(=O)[O-].[Na+].[Na+]` (stereo not given), “inactive”; that for `Cc1cc(C)c2nnc(SCC(=O)O)n2n1`, “inactive”.
On to `OC[C@H]1COCc2cnnn21`, for which the cytotoxicity call is “inactive”.
In the case of `O=C(NCCO)c1cc2ccccc2c(=O)s1` it was “inactive”; in that of `COc1ccc(C#Cc2cnc3c(c2)C(=O)N([C@@H](C)CO)C[C@H](C)[C@@H](CN(C)CC2CCOCC2)O3)cc1`, “inactive”.
In the case of `COCCNc1cc(NC(=O)N2CCCc3cc(CN4CCN(C)CC4=O)c(C=O)nc32)ncc1C#N` it was “inactive”; in that of `C[C@H](CO)N1C[C@H](C)[C@H](CN(C)C(=O)c2ccccc2)OCCCC[C@H](C)Oc2ccc(NC(=O)NC3CCCCC3)cc2C1=O`, “inactive”; in that of `CN1CCN(C(=O)C[C@H]2CC[C@H]3[C@@H](COC[C@@H](O)CN3C(=O)C3CCCC3)O2)CC1`, “inactive”.

The values are drawn from the antibiotic and cytotoxicity screens of Wong et al. (2023).
